Results: PubChem BioAssay AID488969 (Vanderbilt High Throughput Screening Facility, 2010)
Whole data set: some 110,000 compounds, median “z-score” near -0.1, cut for the highest 2% near 2. The list shows a part of the results.

Molecular target: Metabotropic glutamate receptor 8 (Rattus norvegicus) (UniProt P70579)
Experiment: mGluR8 Gi/Go-coupled signaling modulation – cell-based, rat, thallium flux, HTS, primary screen (AID 488969)
Settings: HEK293 rat mGluR8, GIRK (G protein-gated inwardly rectifying potassium channel) thallium flux, FluoZin2; at 10 µM; stronger effect = higher value; submaximal glutamate (EC20) added with thallium

UniProt P70579, sequence (P70579 whole entry, looked up): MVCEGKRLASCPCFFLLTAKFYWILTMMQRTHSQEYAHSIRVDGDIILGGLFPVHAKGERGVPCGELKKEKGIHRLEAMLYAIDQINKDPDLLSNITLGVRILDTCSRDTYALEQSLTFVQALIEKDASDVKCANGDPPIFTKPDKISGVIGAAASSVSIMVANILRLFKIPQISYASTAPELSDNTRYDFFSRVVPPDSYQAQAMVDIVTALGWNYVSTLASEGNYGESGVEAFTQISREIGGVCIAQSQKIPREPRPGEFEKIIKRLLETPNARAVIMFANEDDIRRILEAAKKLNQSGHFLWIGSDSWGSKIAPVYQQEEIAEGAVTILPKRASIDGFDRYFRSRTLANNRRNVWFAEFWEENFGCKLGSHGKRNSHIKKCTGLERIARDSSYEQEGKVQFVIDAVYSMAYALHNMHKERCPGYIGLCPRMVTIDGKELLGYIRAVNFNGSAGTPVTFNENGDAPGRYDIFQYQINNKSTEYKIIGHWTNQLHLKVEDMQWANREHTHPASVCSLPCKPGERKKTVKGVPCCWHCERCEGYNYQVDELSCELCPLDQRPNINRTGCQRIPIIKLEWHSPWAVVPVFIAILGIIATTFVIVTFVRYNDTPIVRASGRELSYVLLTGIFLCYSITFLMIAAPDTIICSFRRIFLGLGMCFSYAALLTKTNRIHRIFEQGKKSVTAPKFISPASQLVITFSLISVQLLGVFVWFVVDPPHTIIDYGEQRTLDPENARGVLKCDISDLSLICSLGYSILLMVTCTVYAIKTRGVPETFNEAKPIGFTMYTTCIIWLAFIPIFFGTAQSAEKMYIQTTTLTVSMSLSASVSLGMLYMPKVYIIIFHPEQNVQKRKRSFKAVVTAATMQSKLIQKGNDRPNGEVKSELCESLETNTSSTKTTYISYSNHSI

| Structure (SMILES) | z-score |
| --- | --- |
| CN(C)c1ccc(C2N(c3ccc(Cl)cc3)C(=O)C3CCCN32)cc1 (centres undefined) | -0.129 |
| Cc1ccc(S(=O)(=O)N(C)Cc2ccc(-c3nnc4n3CCC4)cc2)cc1 | -1.14 |
| NCCOc1ccccc1Cc1ccccc1 | 0.282 |
| CCCCn1c(/N=C/c2ccc3c(c2)OCO3)nc2ccccc21 | -0.738 |
| Cc1nnc2n(-c3ccccc3)c(=O)c3c4c(sc3n12)COC(C(C)C)C4 (centres undefined) | -1.64 |
| CN(CCC#N)C(=O)COC(=O)c1ccc(Cl)c(S(N)(=O)=O)c1 | 0.0421 |
| COc1ccc(OC)c(C(O)c2coc3ccc(O)c(CN(C)C)c23)c1 (centres undefined) | 0.238 |
| Cc1[nH]c2ccccc2c1/C=N/Nc1nc(N2CCCCC2)nc(N2CCCCC2)n1 | -0.185 |
| Cc1cc(N2CCCCCC2)nc2ccc(F)cc12 | -0.101 |
| CCN(CC)CCN1C(=O)C(=O)/C(=C(/O)c2c(C)[nH]c(C(=O)OC)c2C)C1c1ccccc1 (centres undefined) | -0.0174 |
| COc1ccc(C(=O)N(c2ccccc2)C2C=CS(=O)(=O)C2)cc1 (centres undefined) | -0.344 |
| COc1ccc(OC)c(NC(=O)CCCN2C(=O)C3C4C=CC(C4)C3C2=O)c1 (centres undefined) | -0.267 |
| COc1cccc(NC(=O)c2ccncc2)c1 | -0.356 |
| O=C1C2C3C=CC(C3)C2C(=O)N1CC1CCCO1 (centres undefined) | -0.163 |
| COc1ccccc1OCCNS(=O)(=O)c1ccc2oc3ccccc3c2c1 | 1.18 |
| CCCC(=O)Nc1ccc(C(=O)NN2C(=O)c3ccccc3C2=O)cc1 | -0.194 |
| N#Cc1c(-c2ccc(F)cc2)cc(-c2cccnc2)nc1N | -0.0757 |
| COC(=O)c1cc(Br)c(=O)n(Cc2ccco2)c1 | -0.845 |
| CC1CCN(S(=O)(=O)c2ccc3ncn(CC(=O)N(C)Cc4ccccc4)c(=O)c3c2)CC1 | -0.0738 |
| CCCCC(=O)Nc1ccc(NC(=O)c2ccccc2OC)cn1 | -0.456 |
| CCN1C(=O)C(CC(=O)NC)N(NC(=O)c2ccccc2)C1=S (centres undefined) | -0.0424 |
| Cc1ccc(S(=O)(=O)n2nc(-c3ccco3)nc2SCc2ccccc2)cc1 | 0.644 |
| Cc1cc2c(c(=O)o1)C(c1cccs1)C(C#N)=C(N)O2 (centres undefined) | -0.332 |

| Structure (SMILES) | z-score |
| --- | --- |
| COc1cc([N+](=O)[O-])cc(/C=N/NC(=O)C(C)Nc2cccc(C)c2)c1O (centres undefined) | -0.708 |
| COC(=O)c1nc2n(n1)C(c1cccc(Cl)c1)C1=C(CCCC1=O)N2 (centres undefined) | 0.113 |
| CCN(CCCNC(=O)C1CCC(=O)N1Cc1ccc(F)cc1)c1cccc(C)c1 (centres undefined) | 0.139 |
| COc1cc(C(=O)NC2CCCCC2)ccc1OCc1ccc(Cl)cc1Cl | -0.287 |
| Cc1ccc(-c2csc(N)n2)s1 | 0.023 |
| CCOC(=O)Nc1ccc2c(c1)N(C(=O)OC)c1ccccc1CC2 | -0.356 |
| CCOC(=O)COc1c(OC)cc(Cl)cc1C1NC(=O)NC(C)=C1C(C)=O (centres undefined) | -0.0118 |
| Cc1nc(N)c(C#N)c(-c2ccccc2)c1C | -0.124 |
| COc1ccc(CCNC(=O)C(C(=O)c2ccc(F)cc2)n2ccccc2=O)cc1OC (centres undefined) | -0.63 |
| Cc1ccc(-c2nnc(-c3ccc(Br)cc3)o2)o1 | -0.0973 |
| C=CCNC(=S)NNC(=O)c1ccc(OCC)cc1 | -0.313 |
| COC(=O)c1cc(OC)c(OC)cc1NC(=O)C(C)c1ccc([N+](=O)[O-])cc1 (centres undefined) | -0.631 |
| COc1cccc(-c2nc(CS(=O)(=O)CC(=O)NCc3ccccc3OC)c(C)o2)c1 | 0.531 |
| CCCOc1ccc(C(=O)Nc2ccc(Cl)cn2)cc1 | -0.115 |
| CCOc1ccc(S(=O)(=O)N2CCN(C(=O)c3cccn3C)CC2)cc1 | 0.165 |
| CCc1c(C)nc2cc(-c3cccs3)[nH]n2c1=O | -0.282 |
| CCCCC(CCC(=O)NNC(=O)Cc1ccccc1)C(=O)O (centres undefined) | 0.00219 |
| Cc1cc(C)n(CCCO)c(=O)c1C#N | 0.114 |
| CCN1C=C(Cc2ccc(OC)cc2)C2=C(C1)C(c1ccc(OC)cc1)C(C#N)=C(N)O2 (centres undefined) | -0.119 |
| O=C(CCC(=O)N1CCOCC1)Nc1nnc(C2CCCCC2)s1 | 0.559 |
| CCCc1nnc2n1N=C(c1ccc(-c3cc(Cl)ccc3Cl)o1)CS2 | -0.981 |
| CCCCN(CC)C(=O)CN1C(=O)c2ccccc2C1=O | 0.0331 |
| O=C(NCCc1ccccn1)c1cc(-c2ccc(Cl)c(Cl)c2Cl)nc2ccccc12 | -0.136 |

| Structure (SMILES) | z-score |
| --- | --- |
| Cc1cccc(N2CCN(C(=O)CC(NC(=O)c3ccccc3Cl)c3ccccc3)CC2)c1C (centres undefined) | 0.289 |
| CNc1ccc(Br)cc(C(=O)/C=C/c2cc(OC)ccc2OC)c1=O | 0.00567 |
| O=C(Nc1ccccc1)c1sc2cc(C(F)(F)F)cnc2c1-c1cccs1 | 0.0142 |
| Cc1cc(NC(=O)CSc2nc(-c3ccccc3)cs2)no1 | -0.516 |
| CC1(C)CC(=O)C2=C(C1)N(Cc1ccco1)C(=O)NC2(C(F)(F)F)C(F)(F)F | -0.404 |
| CSc1nc(-c2ccco2)nn1C(=O)Cc1ccccc1 | 0.394 |
| Cc1c(-c2nn(C)c(=O)c3ccccc23)oc2ccc(F)cc2c1=O | -0.255 |
| Oc1ccc(-c2nnc(-c3ccc(O)cc3)nn2)cc1 | 0.485 |
| CCCC1CCC(=NNS(=O)(=O)c2ccc(C)c([N+](=O)[O-])c2)CC1 (centres undefined) | -0.584 |
| O=C(CSc1ccc(Cl)cc1)Nc1ccccc1N1CCN(C(=O)c2ccc(Cl)cc2)CC1 | -0.157 |
| CC1(C)CC(=O)C2=C(C1)N(c1ccc(F)cc1)C(=O)CC2c1ccsc1 (centres undefined) | -1.29 |
| CC(=O)c1ccc(N2CCC(c3cc(-c4ccc(Cl)cc4)n[nH]3)CC2)c([N+](=O)[O-])c1 | 0.126 |
| Cc1sc(-c2ccccn2)nc1OC(=O)c1ccc(Cl)cc1 | -0.355 |
| CCc1ccc(-c2nn(-c3cc(Cl)ccc3[N+](=O)[O-])c(=O)c3ccccc23)cc1 | 0.744 |
| COc1cc(Cl)c(C)cc1NC(=O)CSc1ccc(C)cc1 | -0.182 |
| O=C(O)c1ccc(N/N=C/c2ccc(F)c(F)c2)cc1 | -0.223 |
| CC(=O)Nc1cccc(OCC(O)Cn2c(C)nc3ccccc32)c1 (centres undefined) | -0.108 |
| CC12CC(c3ccccc3O1)N(C(=O)c1ccco1)C(=S)N2c1ccccc1 (centres undefined) | -0.0857 |
| FC(F)(F)c1cc(-c2cccs2)nc(-n2cc(Cl)cn2)n1 | -0.103 |
| COc1ccc(NC(=O)CSc2ccccc2)c(OC)c1 | 0.185 |
| CC1=C(C(=O)Nc2ccc(C)cc2C)C(c2ccc(Cl)cc2)n2nc(C(=O)OC(C)C)nc2N1 (centres undefined) | -0.0741 |
| Cc1ccc(C(=O)NCCc2sc(C)nc2C)cc1 | -0.323 |
| Cc1ccc(S(=O)(=O)Nc2ccc(Br)cc2C(NCC(=O)O)c2ccccc2)cc1 (centres undefined) | -0.841 |
